Some of the results follow. The energies were worked out here from pooled read counts, against the library average; single values are noisy.
Molecular target: T1, Pho4 (S. cerevisiae) (UniProt P07270)
T1 sequence: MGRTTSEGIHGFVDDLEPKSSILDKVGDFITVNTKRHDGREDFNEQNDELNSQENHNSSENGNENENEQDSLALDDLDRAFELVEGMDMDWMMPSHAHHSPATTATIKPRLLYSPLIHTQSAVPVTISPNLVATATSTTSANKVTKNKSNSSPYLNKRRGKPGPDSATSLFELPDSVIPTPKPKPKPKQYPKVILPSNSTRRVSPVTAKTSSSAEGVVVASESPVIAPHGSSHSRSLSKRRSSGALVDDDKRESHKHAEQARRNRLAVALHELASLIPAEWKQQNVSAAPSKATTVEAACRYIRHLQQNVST
Assay: relative binding free energy (BET-seq); higher = weaker binding
Details: reference: library average

| Sequence | relative binding free energy [kcal/mol] |
| --- | --- |
| GTTTTCACGTGTTTGA | 0.35 |
| ATGGGCACGTGCTCGG | -0.14 |
| TGTTACACGTGTGGGG | 0.19 |
| GTTTTCACGTGGTCGT | 0.27 |
| GGATGCACGTGGGATA | -0.06 |
| ATTGGCACGTGTCAAT | -0.11 |
| GATGCCACGTGGTTGT | -0.03 |
| GGATACACGTGGTTGT | 0.01 |
| TAGAGCACGTGCTGTG | 0 |
| TTTGTCACGTGTGTTC | 0.21 |
| TGTTACACGTGTGTAT | 0.13 |
| GAGGTCACGTGCTGGA | 0.14 |
| TAATGCACGTGTATGC | -0.01 |
| TGGGTCACGTGGGATC | 0.08 |
| CTTGGCACGTGGGGGT | -0.13 |
| AGGGCCACGTGAAGTT | 0.27 |
| GCTTACACGTGTGAGG | 0.12 |
| TCGTGCACGTGGCTTA | -0.01 |
| TATTTCACGTGCGATG | 0.2 |
| GTTCGCACGTGTTAGA | 0.07 |
| CAGGGCACGTGGGCCG | -0.18 |
| CAGGTCACGTGAGTTG | 0.38 |
| TAGCTCACGTGTATAT | 0.26 |

| Sequence | relative binding free energy [kcal/mol] |
| --- | --- |
| AAAGTCACGTGAAGTG | 0.3 |
| ATTAGCACGTGTTGTC | -0.1 |
| TCGAACACGTGTGGTT | -0.04 |
| TGTAGCACGTGGGACG | -0.19 |
| AGGTGCACGTGTAGTT | 0.13 |
| TATTACACGTGTTGGT | 0.17 |
| GTGAGCACGTGAAGAT | 0.25 |
| TATGGCACGTGGATTG | 0.05 |
| TGTTGCACGTGATGCA | 0.02 |
| GGGGACACGTGTCTTT | 0.03 |
| GATCGCACGTGTTATG | 0.16 |
| TAGCTCACGTGTTTGT | 0.18 |
| TGTATCACGTGCGTTT | 0.11 |
| TTGTACACGTGGTGGG | 0.04 |
| GATATCACGTGTGTAA | 0.14 |
| TTGCTCACGTGGGGGC | 0.09 |
| CGAGTCACGTGATTGT | 0.2 |
| GGTGCCACGTGGTTCG | -0.04 |
| TTTTTCACGTGGACGT | 0.3 |
| GTTTGCACGTGTATAG | 0.14 |
| TCTATCACGTGGTTGA | -0.06 |
| ATATGCACGTGGTAGA | -0.1 |
| GCTGGCACGTGAGGGG | 0.26 |

| Sequence | relative binding free energy [kcal/mol] |
| --- | --- |
| TTAAACACGTGCTGGG | -0.15 |
| TCTGGCACGTGAATTT | 0.14 |
| TGGGACACGTGGGATT | -0.05 |
| GGTTTCACGTGTAAAG | 0.29 |
| AGTATCACGTGGAATA | 0.28 |
| CAATGCACGTGTGGTG | 0.03 |
| CGAGGCACGTGATAGG | -0.1 |
| TGGGCCACGTGCTGGA | -0.13 |
| ATTGACACGTGAGGTT | 0.19 |
| TGTCACACGTGTCGGT | 0.07 |
| AGTAGCACGTGGAACG | 0.12 |
| TTTGTCACGTGCTCGA | 0.07 |
| TAATACACGTGCGTTT | 0.07 |
| TTGTTCACGTGCCTTG | 0.19 |
| GTAGGCACGTGAAAGG | 0.27 |
| GTAAGCACGTGATTGT | 0.26 |
| TATTGCACGTGAGAAT | 0.26 |
| GTCGGCACGTGAAGGT | 0.27 |
| ATAAACACGTGGTTGT | -0.08 |
| GGGATCACGTGGGGGA | 0.06 |
| TGTACCACGTGGTTTA | -0.15 |
| GGGTTCACGTGTTATC | 0.34 |
| TGAAGCACGTGCAGGG | -0.16 |

| Sequence | relative binding free energy [kcal/mol] |
| --- | --- |
| ATAAGCACGTGTAGGT | -0.15 |
| AATGACACGTGATTGG | 0.1 |
| TTGTACACGTGTAATA | 0.11 |
| ATGGTCACGTGATATT | 0.28 |
| AAAGGCACGTGTGAGA | -0.08 |
| GATTTCACGTGAGGGG | 0.52 |
| TGCTTCACGTGTTGGC | 0.1 |
| GTTTGCACGTGACAGT | 0.01 |
| ATGTGCACGTGTCTAG | 0.04 |
| ATTTCCACGTGGGAGG | 0.05 |
| GTTGACACGTGTTTCG | 0.11 |
| GGGACCACGTGGGGTC | -0.16 |
| GGGGTCACGTGTTATT | 0.18 |
| GTCTGCACGTGCTTGT | -0.02 |
| TGAATCACGTGGGGGG | 0.07 |
| GAACTCACGTGGAGGG | 0.3 |
| CGGTACACGTGGTTAG | -0.04 |
| GGAAGCACGTGAGGTG | 0.1 |
| AGTTTCACGTGTGAGT | 0.22 |
| GCTGTCACGTGATATG | 0.24 |
| GAGACCACGTGGGAGG | -0.05 |
| TTCTTCACGTGGAAGG | 0.38 |
| GCCGGCACGTGGATGG | -0.08 |

| Sequence | relative binding free energy [kcal/mol] |
| --- | --- |
| TTTTGCACGTGTTCAT | -0.03 |
| TGGGGCACGTGGTTTA | -0.13 |
| CTGGGCACGTGAGCGT | 0.16 |
| TTAAGCACGTGGTGAT | -0.07 |
| TGTGTCACGTGTATCA | -0.01 |
| TTGGACACGTGGGCCG | -0.06 |
| GGGGTCACGTGCAGGT | 0.17 |
| GTTGACACGTGGGGGT | -0.1 |
| TAGGGCACGTGGCTAT | -0.08 |
| TAAGGCACGTGTAGAA | -0.02 |
| ACAGGCACGTGGTGCG | -0.18 |
| CGTGGCACGTGGAGGG | -0.12 |
| TTGAGCACGTGAATGT | 0.33 |
| TGGACCACGTGTATGT | -0.1 |
| TAGTACACGTGGTGCG | -0.15 |
| GTTGGCACGTGAAACT | 0.1 |
| TCCGGCACGTGTGGTT | 0.05 |
| ATCGTCACGTGATTTG | 0.21 |
| GGGGTCACGTGCTAGA | 0.21 |
| GGTGGCACGTGTATCA | -0.1 |
| TAGGTCACGTGGCGGG | 0.06 |
| AGGTGCACGTGTTTAC | -0.14 |
| ATTAGCACGTGGCATT | -0.09 |

— the BET-seq Pho4 binding data (Le et al. 2018)
